*1 amine or outer side, *2 acyl side, *3 side chain or, on linkers, in order; H or OH if unused. Where a SMILES comes first, the peptide text is derived from it. [ ]: non-standard residue; d: D form. The star is where a group is joined. ξ: configuration not given here. ξPhe(3S-Me) = C[C@@H](c1ccccc1)C(N)C(=O)O; Pro(4,4-Me2) = CC1(C)CN[C@H](C(=O)O)C1; Isobutyloxycarbonyl = CC(C)COC(=O)*; ξ2Nal = NC(Cc1ccc2ccccc2c1)C(=O)O; Hyp = O=C(O)[C@@H]1C[C@@H](O)CN1; X2 = CCCC(N[*:1])C(=O)C(=O)[*:2]; Tic = O=C(O)[C@@H]1Cc2ccccc2CN1; CH2CO2tBu = CC(C)(C)OC(=O)C*; Phg = N[C@H](C(=O)O)c1ccccc1; ξAad = NC(CCCC(=O)O)C(=O)O; ξChg = NC(C(=O)O)C1CCCCC1; ξPhg = NC(C(=O)O)c1ccccc1; ξNle = CCCCC(N)C(=O)O; ξV = CC(C)C(N)C(=O)O; Bn = c1ccc(C*)cc1; ξS = NC(CO)C(=O)O; tBu = CC(C)(C)*

One experiment concerns the target HCV NS3/NS4A protease (strain 1a) (Hepatitis C virus genotype 1a, UniProt P27958). Put plainly: biochemical. As to conditions: Compounds prepared by Solid Phase Synthesis, Table 3; read-out: Ki* CLASS.
One may read the Ki as the dissociation constant of the complex between target and ligand, obtained from inhibition or displacement. As for `CCCCC(NC(=O)CNC(=O)C(=O)C(CCC)NC(=O)[C@@H]1C[C@@H](OCc2ccccc2)CN1C(=O)C(NC(=O)OCC(C)C)C1CCCCC1)C(N)=O` (stereo partly drawn) (Isobutyloxycarbonyl-[ξChg][Hyp](Bn)[X2]G[ξNle]-NH2), the inhibition constant Ki fell in the range of 101 to 1000 nM. Take `CCCC(NC(=O)[C@@H]1C[C@@H](OCc2ccccc2)CN1C(=O)C(NC(=O)OCC(C)C)C1CCCCC1)C(=O)C(=O)NCC(=O)NC(C(N)=O)c1ccccc1` (stereo partly drawn) (Isobutyloxycarbonyl-[ξChg][Hyp](Bn)[X2]G[ξPhg]-NH2): the Ki is 1 to 100 nM. On the same count and under the same terms, as for `CCCC(NC(=O)[C@@H]1C[C@@H](OCc2ccccc2)CN1C(=O)C(NC(=O)OCC(C)C)C1CCCCC1)C(=O)C(=O)NCC(=O)NC(C(=O)O)c1ccccc1` (stereo partly drawn) (Isobutyloxycarbonyl-[ξChg][Hyp](Bn)[X2]G[ξPhg]-OH), the figure is 1 to 100 nM; as for `CCCC(NC(=O)[C@@H]1C[C@@H](OCc2ccccc2)CN1C(=O)C(NC(=O)OCC(C)C)C1CCCCC1)C(=O)C(=O)NCC(=O)NC(COC(C)(C)C)C(N)=O` (stereo partly drawn) (Isobutyloxycarbonyl-[ξChg][Hyp](Bn)[X2]G[ξS](tBu)-NH2), 101 to 1000 nM; as for `CCCCC(NC(=O)CNC(=O)C(=O)C(CCC)NC(=O)[C@@H]1C[C@@H](OCC(=O)OC(C)(C)C)CN1C(=O)C(NC(=O)OCC(C)C)C1CCCCC1)C(N)=O` (stereo partly drawn) (Isobutyloxycarbonyl-[ξChg][Hyp](CH2CO2tBu)[X2]G[ξNle]-NH2), 101 to 1000 nM.

For `CCCC(NC(=O)[C@@H]1C[C@@H](OCC(=O)OC(C)(C)C)CN1C(=O)C(NC(=O)OCC(C)C)C1CCCCC1)C(=O)C(=O)NCC(=O)NC(C(N)=O)c1ccccc1` (stereo partly drawn) (Isobutyloxycarbonyl-[ξChg][Hyp](CH2CO2tBu)[X2]G[ξPhg]-NH2), the Ki is 1 to 100 nM. The same measure, in the same setting: as for `CCCC(NC(=O)[C@@H]1C[C@@H](OCC(=O)OC(C)(C)C)CN1C(=O)C(NC(=O)OCC(C)C)C1CCCCC1)C(=O)C(=O)NCC(=O)NC(COC(C)(C)C)C(N)=O` (stereo partly drawn) (Isobutyloxycarbonyl-[ξChg][Hyp](CH2CO2tBu)[X2]G[ξS](tBu)-NH2), the figure is 101 to 1000 nM; as for `CCCCC(NC(=O)CNC(=O)C(=O)C(CCC)NC(=O)[C@@H]1C[C@@H](OC(C)(C)C)CN1C(=O)C(NC(=O)OCC(C)C)C1CCCCC1)C(N)=O` (stereo partly drawn) (Isobutyloxycarbonyl-[ξChg][Hyp](tBu)[X2]G[ξNle]-NH2), 101 to 1000 nM; as for `CCCC(NC(=O)[C@@H]1C[C@@H](OC(C)(C)C)CN1C(=O)C(NC(=O)OCC(C)C)C1CCCCC1)C(=O)C(=O)NCC(=O)NC(C(N)=O)c1ccccc1` (stereo partly drawn) (Isobutyloxycarbonyl-[ξChg][Hyp](tBu)[X2]G[ξPhg]-NH2), 1 to 100 nM. In the case of `CCCC(NC(=O)[C@@H]1C[C@@H](OC(C)(C)C)CN1C(=O)C(NC(=O)OCC(C)C)C1CCCCC1)C(=O)C(=O)NCC(=O)NC(COC(C)(C)C)C(N)=O` (stereo partly drawn) (Isobutyloxycarbonyl-[ξChg][Hyp](tBu)[X2]G[ξS](tBu)-NH2), the Ki fell in the range of 101 to 1000 nM.

In the case of `CCCCC(NC(=O)CNC(=O)C(=O)C(CCC)NC(=O)[C@@H]1Cc2ccccc2CN1C(=O)C(NC(=O)OCC(C)C)C1CCCCC1)C(N)=O` (stereo partly drawn) (Isobutyloxycarbonyl-[ξChg][Tic][X2]G[ξNle]-NH2), the Ki is above 1000 nM. The same measure, in the same setting: as for `CCCC(NC(=O)[C@@H]1Cc2ccccc2CN1C(=O)C(NC(=O)OCC(C)C)C1CCCCC1)C(=O)C(=O)NCC(=O)NC(COC(C)(C)C)C(N)=O` (stereo partly drawn) (Isobutyloxycarbonyl-[ξChg][Tic][X2]G[ξS](tBu)-NH2), the figure is above 1000 nM.

In the case of `CCCC(NC(=O)[C@@H]1CCCN1C(=O)C(NC(=O)OCC(C)C)C(C)C)C(=O)C(=O)NCC(=O)NC(Cc1ccc2ccccc2c1)C(N)=O` (stereo partly drawn) (Isobutyloxycarbonyl-[ξV]P[X2]G[ξ2Nal]-NH2), the Ki is above 1000 nM. Same read-out and setting: the result for `CCCC(NC(=O)[C@@H]1CCCN1C(=O)C(NC(=O)OCC(C)C)C(C)C)C(=O)C(=O)NCC(=O)NC(CCCC(=O)O)C(N)=O` (stereo partly drawn) (Isobutyloxycarbonyl-[ξV]P[X2]G[ξAad]-NH2) reads above 1000 nM.

The experiment is the same for the next values; noted with them: Table 4; HCV NS3/NS4A protease, spectrophotometric assay, 30° C., pH 6.5; read-out: Ki* Range.
For `CCCC(NC(=O)[C@@H]1CC(C)(C)CN1C(=O)C(NC(=O)OCC(C)C)[C@@H](C)c1ccccc1)C(=O)C(=O)NCC(=O)N[C@H](C(=O)N(C)C)c1ccccc1` (stereo partly drawn) (Isobutyloxycarbonyl-[ξPhe(3S-Me)][Pro(4,4-Me2)][X2]G[Phg]-NMe2), the Ki was 1 to 100 nM.

These data come from patent publication US7592316B2, “Peptides as NS3-serine protease inhibitors of hepatitis C virus” (Schering Corporation, priority 2000, dated 2009).
